Experimental data from PubChem BioAssay AID588855 (National Center for Advancing Translational Sciences (NCATS), 2011).
Out of some 410,000 compounds screened, about 5,000 (1.2%) were called active. Inconclusive results, whose numbers are uncertain, are shown with a selection of clear calls. Calls follow the shape of the dose curve; as a rule, active = well fitted inhibition curve with a large enough effect; inconclusive = small, poorly fitted or top-dose-only effect; inactive = no such curve, though single readings can be large or run the other way. A potency beside an inconclusive call is a rough fit, not a confirmed value.

Test: qHTS for Inhibitors of TGF-b; also: nearly all actives have a fitted effect of over 65% in size
Conditions: HepG2 CAGA-GFP TGF-b/SMAD3 reporter, GFP fluorescence, 18 h, TGF-beta stimulated, 500 pg/mL final; series mostly up to 46.1 µM; activity, negative = inhibition: at the top concentration
In short: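 Using HEPG2 CAGA-GFP reporter cells at 1000 cells/well, we pinned test compounds, stimulated with recombinant TGF-beta (500 pg/mL final) and measured total well GFP after 18 h.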
% is scaled to controls: 0 for no effect and ±100 for the full control effect; potency is read from the fitted curve at half-maximal effect; tags tell the direction and shape of the fitted curve.

Structure (SMILES)	activity, negative = inhibition	Potency
Cc1ccc(C)c(CSc2nnc([C@@H](N)C(C)C)o2)c1	inactive: 0.264%	–
Cc1ccc(CN2C(=O)CC(Nc3ccc(N4CCOCC4)cc3)C2=O)cc1 (stereo not drawn)	inactive: 6.65%	–
COCCN1C(=O)N[C@@H](c2cccc(C(F)(F)F)c2)[C@H](C(C)=O)[C@H]1C	–	inconclusive: 0.501 µM [inhibitor, partial curve, poor fit]
CCOC(=O)c1cn(CC)c2cc(N3CCSCC3)c(F)cc2c1=O	inactive: -17%	–
COc1ccc(CCNC(=O)C2CC(c3cc(C(F)(F)F)cc(C(F)(F)F)c3)=NO2)cc1 (stereo not drawn)	inactive: -0.667%	–
COc1cccc(NC(=O)c2ccc3[nH]c(C)cc(=O)c3c2)c1	–	inconclusive: 1.26 µM [inhibitor, partial curve, poor fit]
O=C(c1ccco1)N1CCN(CC(O)COc2ccc3oc4ccccc4c3c2)CC1 (stereo not drawn)	–	inconclusive: 11.2 µM [inhibitor, single point]
Cc1csc(NC(=O)C2CCN(S(=O)(=O)c3ccc4c(c3)oc(=O)n4C)CC2)n1	inactive: -2.37%	–
OC(CN1CCN(c2ccccc2)CC1)c1c[nH]c2ccccc12 (stereo not drawn)	–	inconclusive: 5.62 µM [inhibitor, single point]
O=C(N/N=C/C=C/c1ccccc1)c1cc2c(ccc3ccccc32)o1	inactive: -0.321%	–
COc1cc(/C=N/OCC(=O)Nc2cc(C)cc(C)c2)ccc1OCc1ccc(Cl)cc1	–	inconclusive: 28.2 µM [inhibitor, single point]
CCOc1cc(/C=N/N=C(N)N)ccc1OCc1ccc(Cl)cc1	–	inconclusive: 20 µM [inhibitor, single point]
COc1cccc(N2CCN(S(=O)(=O)c3ccc(-c4coc(C)n4)cc3)CC2)c1	–	inconclusive: 35.5 µM [inhibitor, single point]
C=CCn1c(O)c(N=NC(=S)Nc2ccccc2F)c2cc(S(=O)(=O)N3CCOCC3)ccc21	–	inconclusive: 0.1 µM [inhibitor, full curve, poor fit]
O=C(NC(=S)Nc1sc2c(c1C(=O)O)CCCC2)c1ccccc1	inactive: 6.03%	–
O=C(CN1CCN(Cc2ccccc2)CC1)Nc1ccc(Br)cc1	–	inconclusive: 35.5 µM [inhibitor, partial curve, poor fit]
Cc1ccc(C(=O)Nc2ccc(Br)cc2)cc1S(=O)(=O)NCc1ccccc1	–	active: 15.8 µM
Cn1c(=O)c2nc(-c3ccc(Cl)cc3Cl)oc2c2ccccc21	–	inconclusive: 31.6 µM [inhibitor, single point]
CC(C)(C)CC(C)(C)NC(=S)Nc1ccc(S(=O)(=O)N2CCOCC2)cc1	–	inconclusive: 35.5 µM [inhibitor, single point]
CCCc1cc(N2CCC(C(N)=O)CC2)nc(-c2ccccc2)n1	–	inconclusive: 3.98 µM [inhibitor, partial curve, poor fit]
O=C(N/N=C/c1cc(Br)c(O)c(Br)c1O)c1cccnc1	inactive: -5.32%	–
COc1ccc(C2=Nn3c(nnc3-c3ccccc3OC)SC2)cc1OC1CCCC1	–	inconclusive: 8.91 µM [inhibitor, partial curve, poor fit]
O=[N+]([O-])c1cccc(-c2ccc(/C=N/NC(=S)NCc3ccco3)o2)c1	inactive: -19.8%	–

Structure (SMILES)	activity, negative = inhibition	Potency
COc1ccc(-c2ccc(C(=O)NCc3ccc(N4CCN(C)CC4)cc3)c3occc23)c(C)c1	–	inconclusive: 25.1 µM [inhibitor, single point]
O=C(/C=C/c1cccc([N+](=O)[O-])c1)N1CCN(Cc2ccccc2)CC1	–	inconclusive: 20 µM [inhibitor, single point]
COC(=O)c1cc(OC)c(OC)cc1NC(=O)c1ccc(C)o1	–	inconclusive: 8.91 µM [inhibitor, partial curve, poor fit]
Cc1cccc(NS(=O)(=O)c2nnc(NC(=O)c3cccc(C)c3)s2)c1	–	inconclusive: 4.47 µM [inhibitor, partial curve]
Cc1ccc(-n2c(SCC(=O)Nc3ccc4c(c3)OCCO4)nc3c([nH]c4ccccc43)c2=O)cc1	inactive: 1.66%	–
CCCCN1CCc2c(c3ccccc3n2Cc2ccccc2)C1	–	inconclusive: 20 µM [inhibitor, single point]
OC[C@H]1O[C@@H](c2nc(-c3ccc(CN4CCOCC4)cc3)no2)[C@H](O)[C@@H](O)[C@H]1O	inactive: 19.8%	–
CC1CN(C(=O)Cc2ccc(-c3ccccc3)cc2)CC(C)O1 (stereo not drawn)	–	inconclusive: 35.5 µM [inhibitor, single point]
C=CCN(CC=C)CC(O)Cn1c2ccccc2c2ccccc21 (stereo not drawn)	–	inconclusive: 22.4 µM [inhibitor, single point]
CN(CCc1ccccc1)C(CCc1ccccc1)C(=O)Nc1ccc2c(c1)OCCO2 (stereo not drawn)	–	inconclusive: 11.2 µM [inhibitor, partial curve]
COc1ccc(CNC(=O)CCCN2C(=O)c3cccnc3Oc3ccc(Cl)cc32)cc1	–	inconclusive: 35.5 µM [inhibitor, single point]
CCOc1cc(CNCCO)cc(Br)c1OCc1ccc(Cl)cc1Cl	–	inconclusive: 35.5 µM [inhibitor, single point]
Cc1ccc(C)c(OCc2nnc(NC(=O)c3ccc4c(c3)OCO4)s2)c1	inactive: 1.93%	–
Cc1oc(-c2cccc(Cl)c2)nc1CSCC(=O)NCc1ccccc1Cl	–	inconclusive: 12.6 µM [inhibitor, single point]
COc1ccccc1-n1c(CNC(=O)COc2ccccc2)n[nH]c1=S	inactive: -0.359%	–
Cc1ccc(/C=C(\NC(=O)c2ccccc2)C(=O)NCCc2ccccn2)o1	–	inconclusive: 0.708 µM [inhibitor, full curve, poor fit]
CC(=O)Nc1ccc(-c2c(C)cc3oc(=O)cc(-c4ccccc4)c3c2C)cc1	–	inconclusive: 22.4 µM [inhibitor, single point]
CCn1c(O)c(N=Nc2ccc3ccccc3n2)c2ccccc21	–	inconclusive: 35.5 µM [inhibitor, single point]
CCCCN(C)c1c(C)nc2ccc(C(=O)NCc3ccc4c(c3)OCO4)cn12	–	inconclusive: 14.1 µM [inhibitor, partial curve, poor fit]
COC(=O)c1ccc(CSc2nnc(NC(=O)C3CC(=O)N(c4ccc5c(c4)OCCO5)C3)s2)cc1 (stereo not drawn)	–	inconclusive: 3.55 µM [inhibitor, single point]
Cc1ccc2oc(=O)n(Cc3ccc(F)cc3)c2c1	inactive: 6.6%	–
CC(=O)c1c(C)[nH]c(C(=O)OCC(=O)c2ccc(C)s2)c1C	inactive: -7.62%	–
COC(=O)C1CN(C(=O)COc2ccc(C)c(C)c2)c2ccccc2O1 (stereo not drawn)	inactive: -3.21%	–

Structure (SMILES)	activity, negative = inhibition	Potency
Cc1nn(-c2ccccc2)c2nc(N)c(C#N)c(-c3ccc(F)cc3)c12	inactive: -7.26%	–
C=CCNC(=O)c1onc(CSc2ccc(Cl)cc2)c1C(=O)NCC=C	–	inconclusive: 7.08 µM [inhibitor, partial curve, poor fit]
CC(C)(C)OC(=O)[C@H](Cc1ccccc1)NC(=O)c1nc[nH]c1C(=O)NCc1ccccc1	–	inconclusive: 35.5 µM [inhibitor, single point]
Cc1cccc([C@@H]2[C@@H]3C(=O)N(Cc4ccccc4)C(=O)[C@@H]3[C@]3(C)C(=O)N(c4cccc(F)c4)C(=O)N23)c1	–	inconclusive: 5.62 µM [inhibitor, partial curve]
COC(=O)CN1C(C(=O)c2ccccc2)=C(OC(=O)c2ccc(C)cc2)c2ccccc2S1(=O)=O	–	inconclusive: 22.4 µM [inhibitor, single point]
O=C(c1cccn1-c1nnc(N2CCCCC2)s1)N1CCN(c2ccccc2)CC1	–	inconclusive: 6.31 µM [inhibitor, single point]
C[C@H](NC(=O)Cc1cccc2ccccc12)C(=O)N1CCOCC1	inactive: -3.78%	–
C=C(C)Cn1c2ccc(NC(=O)CCc3cccnc3)cc2c(=O)n1C	inactive: 24.9%	–
O=[N+]([O-])c1cc(/C=N/N2CCOCC2)cs1	–	inconclusive: 35.5 µM [inhibitor, single point]
CCOC(=O)NC(=O)C(=CNc1cccc(OC)c1)C(=O)NC(=O)OCC	–	inconclusive: 35.5 µM [inhibitor, single point]
CCOc1ccccc1CNC(=O)CCCN1C(=O)c2cccnc2Oc2ccc(Cl)cc21	inactive: -29.8%	–
COc1ccccc1Cn1c(SCC(=O)C(C)(C)C)nc2ccccc2c1=O	–	inconclusive: 8.91 µM [inhibitor, partial curve]
CCOC(=O)C1(CCOc2ccccc2)CCN(Cc2ccc(OCC)c(CO)c2)CC1	inactive: -23.3%	–
CCOC(=O)c1c(C)oc2nc(C)nc(N3CCN(c4ccc(OC)cc4)CC3)c12	–	inconclusive: 25.1 µM [inhibitor, single point]
O=C(C[C@H]1C/C=C\C[C@@H](Cc2ccc(F)cc2)C(=O)O[C@@H](c2ccccc2)CNC1=O)NCCO	inactive: -11.7%	–
CCCNC(=O)CNC(=S)N(Cc1ccccc1F)C1CCCCC1	inactive: -19.3%	–
CCOC(=O)c1ccccc1NC(=O)COC(=O)c1c(CC)noc1C	inactive: 30.1%	–
O=C(NCc1cccnc1)/C(=C\c1ccc(-c2ccc(Br)cc2)o1)S(=O)(=O)c1ccccc1	–	active: 10 µM
O=C1NC(=O)C(=Cc2ccc(Cl)cc2Cl)S1	–	inconclusive: 35.5 µM [inhibitor, partial curve, poor fit]
O=C(Nc1ccc(F)cc1)Nc1ccc2snnc2c1	–	inconclusive: 12.6 µM [inhibitor, partial curve]
CCc1cccc(NC(=O)CN(c2ccc(C)cc2)S(=O)(=O)c2cccs2)c1	inactive: -10.8%	–
Cc1ccc(C(=O)N2CCc3cc(CNC(=O)CCc4ccccc4)ccc32)cc1	–	inconclusive: 35.5 µM [inhibitor, single point]
